# Laboratory results as given in PubChem BioAssay (Tox21).
# Values joined by “and” are separate entries in the source; they are usually repeats but may differ in a detail not shown here. Equal values may be shown once. The shares of active, inactive and inconclusive entries below differ from those in the screen. Potencies of inconclusive entries are doubtful fits and often do not repeat. A structure can be active in one record and inactive in another. Active and inactive are the calls of the source. Unless noted, the call rests on the fitted dose curve; in most records, active means well fitted curve in the direction sought with a large enough effect in the repeat runs; inconclusive means weak or mixed curves; inactive means no such curve, though single readings can be large; an effect the other way counts as inactive or inconclusive.
# Key:
# [1] = qHTS assay to identify small molecule antagonists of the androgen receptor (AR) signaling pathway - cell viability counter screen (AID 743033; further: nearly all actives have a fitted effect of over 45% in size; on activity change, negative = cytotoxicity: on the % scale 0 is the no-effect control and ±100 the full control effect); conditions: AR-bla HEK293 viability, CellTiter-Glo luminescence, 16 h; activity change, negative = cytotoxicity: at 58.5 µM (top of the series)
# [2] = target: Androgen receptor (Homo sapiens) (UniProt P10275); test: qHTS assay to identify small molecule antagonists of the androgen receptor (AR) signaling pathway (AID 743035; active means well fitted inhibition curve with a large enough effect in the signal ratio in the repeat runs, not every such curve was filed as active; inconclusive means weak or mixed curves, or effect the other way; inactive means no such curve, though single readings can be large or run the other way; the % refers to the signal ratio); conditions: HEK293 AR-UAS-bla, R1881-stimulated, beta-lactamase FRET, 16 h; activity change, negative = inhibition: at 58.5 µM (top of the series) unless noted
# Method in brief: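 In this cell-based reporter screen, compounds were tested in concentration series against R1881-activated HEK293 cells expressing beta-lactamase under UAS control; after 16 h at 37C, FRET substrate was added and fluorescence read 2 h later.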
# [3] = target: Androgen receptor (Homo sapiens) (UniProt P10275); test: qHTS assay to identify small molecule agonists of the androgen receptor (AR) signaling pathway (AID 743036; active means well fitted activation curve with a large enough effect in the signal ratio in the repeat runs, with a control signal flat, not every such curve was filed as active; inconclusive means weak or mixed curves, or effect the other way; inactive means no such curve, though single readings can be large or run the other way; the % refers to the signal ratio; on activation: on the % scale 0 is the no-effect control and ±100 the full control effect); conditions: HEK293 AR-UAS-bla GripTite, beta-lactamase FRET ratio, 16 h; activation: at 62.4 µM (top of the series) unless noted
# Method in brief: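 Agonist activity was scored by beta-lactamase reporter fluorescence in stably transfected HEK293 cells exposed to compounds for 16 h at 37C and 5% CO2. Substrate loading took 2 h at room temperature.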
# [4] = target: Androgen receptor (Homo sapiens) (UniProt P10275); test: qHTS assay to identify small molecule antagonists of the androgen receptor (AR) signaling pathway using the MDA cell line (AID 743042; further: nearly all actives have a fitted effect of over 55% in size); conditions: MDA-kb2 AR-luc, MMTV luciferase, R1881 antagonist, 16 h; series mostly up to 70.3 µM
# Method in brief: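 MDA-kb2 cells (human breast carcinoma, stably carrying an MMTV-luciferase reporter responsive to AR and GR) were plated at 3,000 cells/well and preincubated 5 hr at 37C, then given compound plus R1881 agonist for 16 h. ONE-Glo luminescence was read.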
# [5] = qHTS assay to identify small molecule antagonists of the thyroid receptor (TR) signaling pathway - cell viability counter screen (AID 743064); conditions: GH3.TRE-Luc viability, CellTiter-Fluor, 24 h; activity change, negative = cytotoxic: at 70.3 µM (top of the series) unless noted; further: nearly all actives have a fitted effect of over 50% in size; on activity change, negative = cytotoxic: on the % scale 0 is the no-effect control and ±100 the full control effect
# Method in brief: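 Same-well viability check: GH3.TRE-Luc cells stimulated with 1 nM T3 alongside test compound for 23.5 h, followed by CellTiter-Fluor fluorescence.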
# [6] = qHTS assay to identify small molecule antagonists of the androgen receptor (AR) signaling pathway using the MDA cell line - cell viability counter screen (AID 743041; further: nearly all actives have a fitted effect of over 45% in size; on viability change, negative = cytotoxic: on the % scale 0 is the no-effect control and ±100 the full control effect); conditions: MDA-kb2 viability, CellTiter-Fluor, 16 h, cells co-treated with R1881 androgen agonist; viability change, negative = cytotoxic: at 70.3 µM (top of the series) unless noted
# Method in brief: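 qHTS viability read-out; MDA-kb2 AR-luc; R1881-stimulated; 16 h exposure at 37C, 0% CO2; CellTiter-Fluor, 30 min; fluorescence intensity.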
# [7] = qHTS assay for identifying genotoxic compounds that show differential cytotoxicity against isogenic chicken DT40 cell lines with known DNA damage response pathways - Rad54/Ku70 mutant cell line (AID 743015); conditions: DT40 Rad54/Ku70 mutant viability, CellTiter-Glo, 40 h; activity change, negative = cytotoxicity: at 66.8 µM (top of the series); further: nearly all actives have a fitted effect of over 60% in size
# Potency means the concentration at half of the fitted maximal effect; tags describe the fitted curve by direction and shape or compound fluorescence and quenching.
# UniProt P10275, sequence (P10275 whole entry, looked up): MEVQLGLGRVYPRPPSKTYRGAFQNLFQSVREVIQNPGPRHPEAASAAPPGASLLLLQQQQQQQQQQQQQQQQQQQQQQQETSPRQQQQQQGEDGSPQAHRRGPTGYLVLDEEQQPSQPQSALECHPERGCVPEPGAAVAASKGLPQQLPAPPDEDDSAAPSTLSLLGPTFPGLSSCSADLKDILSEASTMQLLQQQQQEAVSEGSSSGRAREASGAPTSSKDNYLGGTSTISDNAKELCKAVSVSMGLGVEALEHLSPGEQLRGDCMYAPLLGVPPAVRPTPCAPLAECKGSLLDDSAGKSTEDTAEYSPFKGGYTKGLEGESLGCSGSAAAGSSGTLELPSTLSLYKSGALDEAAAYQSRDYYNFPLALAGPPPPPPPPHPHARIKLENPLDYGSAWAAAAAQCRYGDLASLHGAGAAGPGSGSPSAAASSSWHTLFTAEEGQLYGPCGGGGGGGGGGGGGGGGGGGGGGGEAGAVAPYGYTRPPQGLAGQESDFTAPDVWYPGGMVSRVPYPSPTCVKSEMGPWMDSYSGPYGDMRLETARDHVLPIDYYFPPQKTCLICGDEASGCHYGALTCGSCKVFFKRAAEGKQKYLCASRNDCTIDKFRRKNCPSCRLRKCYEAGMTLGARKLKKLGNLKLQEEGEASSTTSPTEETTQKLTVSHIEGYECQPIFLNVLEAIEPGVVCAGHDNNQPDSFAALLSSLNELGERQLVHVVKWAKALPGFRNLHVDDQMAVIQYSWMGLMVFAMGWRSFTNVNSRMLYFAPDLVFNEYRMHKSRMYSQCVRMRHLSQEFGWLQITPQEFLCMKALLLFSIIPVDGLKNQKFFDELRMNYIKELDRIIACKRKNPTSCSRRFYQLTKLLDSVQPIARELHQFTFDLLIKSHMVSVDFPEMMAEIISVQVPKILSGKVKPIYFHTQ
smiles,measurement,setting,value
Cc1ccccc1Br,Potency,[1],inactive
O=C(O)CCC(=O)C(=O)O,Potency,[1],inactive
Cc1ccc(S(N)(=O)=O)cc1,Potency,[1],inactive
COc1cc(C=C2CCC/C(=C\c3ccc(O)c(OC)c3)C2=O)ccc1O,Potency,[1],"inconclusive: 7.56 µM [cytotoxic, full curve]"
same,Potency,[2],"inconclusive: 2.39 µM [rising, full curve, poor fit]"
same,Potency,[3],"inconclusive: 2.13 µM [rising, partial curve]"
O=C(NOCC1CC1)c1ccc(F)c(F)c1Nc1ccc(I)cc1Cl,Potency,[1],"inconclusive: 26.8 µM [cytotoxic, partial curve, poor fit]"
same,Potency,[2],inconclusive: 26.8 µM
same,activation,[3],inconclusive: -4.86%
same,Potency,[4],"inconclusive: 26.6 µM [inhibitor, partial curve]"
same,Potency,[5],active: 15 µM
NC(=O)c1ccccc1O,Potency,[1],inactive
NC(=O)c1cccnc1,Potency,[1],"inconclusive: 1.07 µM [rising, full curve, poor fit]"
CN(C)c1ccc(N=NS(=O)(=O)O)cc1,Potency,[1],"inconclusive: 3.89 µM [cytotoxic, full curve]"
same,Potency,[2],"inconclusive: 5.16 µM [phenotype inactive, full curve, poor fit]"
same,Potency,[3],inconclusive: 4.9 µM
same,Potency,[6],active: 14.4 µM
same,Potency,[5],"inconclusive: 0.456 µM [cytotoxic, full curve, poor fit]"
O=C(O)C[C@H](NC(=O)OCc1ccccc1)C(=O)O,Potency,[1],inactive
Cc1cc(O)cc2c1O[C@](C)(CCC[C@H](C)CCC[C@H](C)CCCC(C)C)CC2,Potency,[1],"inconclusive: 21.3 µM [rising, partial curve]"
NCc1ccc(S(N)(=O)=O)cc1,Potency,[1],"inconclusive: 0.574 µM [cytotoxic, full curve, poor fit]"
CC(CN(C)C)CN1c2ccccc2CCc2ccccc21 (configuration not stated),Potency,[7],"inconclusive: 12.7 µM [cytotoxic, single point]"
same,Potency,[5],active: 4.52 µM
CC(=O)[C@H]1CC[C@H]2[C@@H]3CCC4=CC(=O)CC[C@]4(C)[C@H]3CC[C@]12C,Potency,[7],active: 9.44 µM and active: 12.1 µM and active: 12.2 µM
same,Potency,[5],"inconclusive: 68.6 µM [cytotoxic, single point]"
same,"activity change, negative = cytotoxic",[5],inconclusive: -31.4% [cytotoxic]
Cc1c(O)cccc1C(=O)N[C@@H](CSc1ccccc1)[C@H](O)CN1C[C@H]2CCCC[C@H]2C[C@H]1C(=O)NC(C)(C)C,Potency,[1],active: 19 µM and active: 16.9 µM
same,Potency,[2],active: 10.7 µM and active: 6.74 µM
same,Potency,[4],active: 26.6 µM and active: 29.8 µM
CC(=O)NC1(c2cccc(F)c2)CCN(CC[C@@]2(c3ccc(Cl)c(Cl)c3)CN(c3ccccc3)C(=O)CO2)CC1,Potency,[1],active: 39 µM
CCCCCCCC[N+](CCCCCCCC)(CCCCCCCC)CCCCCCCC,Potency,[1],active: 0.308 µM
CN1CCCN(C(c2ccccc2)c2ccc(Cl)cc2)CC1 (configuration not stated),Potency,[1],"inconclusive: 0.0048 µM [cytotoxic, full curve, poor fit]"
same,Potency,[2],"inconclusive: 8.49 µM [rising, partial curve, poor fit]"
same,activation,[3],inconclusive: 1.61%
same,Potency,[6],inactive
same,Potency,[5],active: 6.68 µM
CCCCCCCCCC(=O)OCC,Potency,[7],inactive
same,Potency,[5],"inconclusive: 48.5 µM [rising, partial curve]"
NC(=O)c1nc(-c2cccc(-c3cc(F)ccc3OCC(F)(F)C(F)(F)F)c2)n[nH]1,Potency,[1],active: 21.9 µM
same,Potency,[2],active: 13.8 µM
same,Potency,[6],active: 61.1 µM
same,Potency,[4],active: 61.1 µM
same,Potency,[5],"inconclusive: 68.6 µM [cytotoxic, single point]"
Cc1[nH]nc2c1N=C(c1ccccc1Cl)c1cc([N+](=O)[O-])ccc1N2,Potency,[1],active: 43.6 µM
O=C(Nc1cccc([N+](=O)[O-])c1)c1cc2ccccc2cc1O,Potency,[1],active: 1.38 µM
same,Potency,[2],"inconclusive: 0.692 µM [rising, full curve, poor fit]"
same,Potency,[6],active: 10.9 µM
same,Potency,[5],active: 1.72 µM
CCCOC(=O)NCCCN(C)C,Potency,[1],inactive
CC(C)CCCCCCCOC(=O)CCCCC(=O)OCCCCCCCC(C)C,Potency,[1],inactive
NNC(=O)c1cccc(C(=O)NN)c1,Potency,[1],inactive
O=C1OC2(c3ccc(O)cc3Oc3cc(O)ccc32)c2ccccc21,Potency,[7],"inconclusive: 33.5 µM [cytotoxic, partial curve, poor fit]"
same,Potency,[5],"inconclusive: 26.6 µM [rising, partial curve] and inconclusive: 23.7 µM [rising, partial curve] and inconclusive: 54.5 µM [rising, partial curve]"
Oc1c(I)cc(Cl)c2cccnc12,Potency,[1],inactive and active: 17.3 µM
same,Potency,[2],"inconclusive: 7.75 µM [rising, full curve, poor fit]"
same,Potency,[6],"inconclusive: 24.3 µM [cytotoxic, single point]"
same,Potency,[4],"inactive and inconclusive: 24.3 µM [inhibitor, partial curve]"
same,Potency,[5],"inconclusive: 21.6 µM [cytotoxic, partial curve]"
OCCOCCOCCOCCOCCO,Potency,[1],inactive
CC(=O)C(C)=O,Potency,[1],inactive
O=c1cc[nH]c(=O)[nH]1,Potency,[7],inactive
same,Potency,[5],inactive
Cc1cccc(C)c1OCC(=O)N[C@@H](Cc1ccccc1)[C@@H](O)C[C@H](Cc1ccccc1)NC(=O)[C@H](C(C)C)N1CCCNC1=O,Potency,[1],"inconclusive: 26.8 µM [cytotoxic, single point]"
same,Potency,[2],"inconclusive: 23.9 µM [rising, partial curve, poor fit]"
same,Potency,[3],"inconclusive: 26.8 µM [activator, single point]"
same,Potency,[6],"inconclusive: 33.5 µM [cytotoxic, partial curve, poor fit]"
same,Potency,[4],"inconclusive: 33.5 µM [inhibitor, single point]"
